Drawing on article PMC9911399, “Two distinct binding modes provide the RNA-binding protein RbFox with extraordinary sequence specificity”, this text covers binding signal for 31 molecules.

Positions count from the first letter of the chain named. This is one part of the list.

To fix the notation:
B1: GUCCAGA (DNA:RNA)
RNA: GGGAGACCGGAAUUCAGAUUGUCCGUCCAGAUUAAAUCCCGUCGUAGCCACCA
DNA 1: CAATCTGAATTCCGGTCTCCC
DNA 2: TGGTGGCTACGACGGGATT
B2: UGGGCUU (DNA:RNA)
RNA: GGGAGACCGGAAUUCAGAUUGUCCUGGGCUUUUAAAUCCCGUCGUAGCCACCA
DNA 1: CAATCTGAATTCCGGTCTCCC
DNA 2: TGGTGGCTACGACGGGATT
B3: UACAACA (DNA:RNA)
RNA: B1 RNA with G25U, U26A, C28A, G30C
DNA 1: CAATCTGAATTCCGGTCTCCC
DNA 2: TGGTGGCTACGACGGGATT
B4: UAUAUGA (DNA:RNA)
RNA: B1 RNA with G25U, U26A, C27U, C28A, A29U
DNA 1: CAATCTGAATTCCGGTCTCCC
DNA 2: TGGTGGCTACGACGGGATT
B5: CUCGAGA (DNA:RNA)
RNA: B1 RNA with G25C, C28G
DNA 1: CAATCTGAATTCCGGTCTCCC
DNA 2: TGGTGGCTACGACGGGATT
B6: CUCAUCC (DNA:RNA)
RNA: B1 RNA with G25C, C28A, A29U, G30C, A31C
DNA 1: CAATCTGAATTCCGGTCTCCC
DNA 2: TGGTGGCTACGACGGGATT
B7: UCGAAAG (DNA:RNA)
RNA: B2 RNA with G26C, G28A, C29A, U30A, U31G
DNA 1: CAATCTGAATTCCGGTCTCCC
DNA 2: TGGTGGCTACGACGGGATT
B8: CAGCCUG (DNA:RNA)
RNA: B2 RNA with U25C, G26A, G28C, U31G
DNA 1: CAATCTGAATTCCGGTCTCCC
DNA 2: TGGTGGCTACGACGGGATT
B9: AUGCUUC (DNA:RNA)
RNA: B1 RNA with G25A, C27G, A29U, G30U, A31C
DNA 1: CAATCTGAATTCCGGTCTCCC
DNA 2: TGGTGGCTACGACGGGATT
B10: CCACGUC (DNA:RNA)
RNA: B1 RNA with G25C, U26C, C27A, A29G, G30U, A31C
DNA 1: CAATCTGAATTCCGGTCTCCC
DNA 2: TGGTGGCTACGACGGGATT
B11: CCAACUC (DNA:RNA)
RNA: B2 RNA with U25C, G26C, G27A, G28A, U31C
DNA 1: CAATCTGAATTCCGGTCTCCC
DNA 2: TGGTGGCTACGACGGGATT
B12: UCCUAGG (DNA:RNA)
RNA: B1 RNA with G25U, U26C, C28U, A31G
DNA 1: CAATCTGAATTCCGGTCTCCC
DNA 2: TGGTGGCTACGACGGGATT
B13: GUGAUCA (DNA:RNA)
RNA: B1 RNA with C27G, C28A, A29U, G30C
DNA 1: CAATCTGAATTCCGGTCTCCC
DNA 2: TGGTGGCTACGACGGGATT
B14: UCAAGCU (DNA:RNA)
RNA: B2 RNA with G26C, G27A, G28A, C29G, U30C
DNA 1: CAATCTGAATTCCGGTCTCCC
DNA 2: TGGTGGCTACGACGGGATT
B15: AAUGAUG (DNA:RNA)
RNA: B2 RNA with U25A, G26A, G27U, C29A, U31G
DNA 1: CAATCTGAATTCCGGTCTCCC
DNA 2: TGGTGGCTACGACGGGATT
B16: ACAUAGA (DNA:RNA)
RNA: B1 RNA with G25A, U26C, C27A, C28U
DNA 1: CAATCTGAATTCCGGTCTCCC
DNA 2: TGGTGGCTACGACGGGATT
B17: GUCCAGG (DNA:RNA)
RNA: B1 RNA with A31G
DNA 1: CAATCTGAATTCCGGTCTCCC
DNA 2: TGGTGGCTACGACGGGATT
B18: AUCGUUC (DNA:RNA)
RNA: B1 RNA with G25A, C28G, A29U, G30U, A31C
DNA 1: CAATCTGAATTCCGGTCTCCC
DNA 2: TGGTGGCTACGACGGGATT
B19: ACGCGCG (DNA:RNA)
RNA: B1 RNA with G25A, U26C, C27G, A29G, G30C, A31G
DNA 1: CAATCTGAATTCCGGTCTCCC
DNA 2: TGGTGGCTACGACGGGATT
B20: UAUUCGG (DNA:RNA)
RNA: B2 RNA with G26A, G27U, G28U, U30G, U31G
DNA 1: CAATCTGAATTCCGGTCTCCC
DNA 2: TGGTGGCTACGACGGGATT
B21: UCCGGGG (DNA:RNA)
RNA: B1 RNA with G25U, U26C, C28G, A29G, A31G
DNA 1: CAATCTGAATTCCGGTCTCCC
DNA 2: TGGTGGCTACGACGGGATT
B22: CGCUAUC (DNA:RNA)
RNA: B1 RNA with G25C, U26G, C28U, G30U, A31C
DNA 1: CAATCTGAATTCCGGTCTCCC
DNA 2: TGGTGGCTACGACGGGATT
B23: UGGUGUU (DNA:RNA)
RNA: B2 RNA with G28U, C29G
DNA 1: CAATCTGAATTCCGGTCTCCC
DNA 2: TGGTGGCTACGACGGGATT
B24: CGUCAAA (DNA:RNA)
RNA: B1 RNA with G25C, U26G, C27U, G30A
DNA 1: CAATCTGAATTCCGGTCTCCC
DNA 2: TGGTGGCTACGACGGGATT
B25: CUUAAUA (DNA:RNA)
RNA: B1 RNA with G25C, C27U, C28A, G30U
DNA 1: CAATCTGAATTCCGGTCTCCC
DNA 2: TGGTGGCTACGACGGGATT
B26: CGGCUGC (DNA:RNA)
RNA: B1 RNA with G25C, U26G, C27G, A29U, A31C
DNA 1: CAATCTGAATTCCGGTCTCCC
DNA 2: TGGTGGCTACGACGGGATT
B27: CCGCUAU (DNA:RNA)
RNA: B2 RNA with U25C, G26C, G28C, C29U, U30A
DNA 1: CAATCTGAATTCCGGTCTCCC
DNA 2: TGGTGGCTACGACGGGATT
B28: GAUAAAG (DNA:RNA)
RNA: B1 RNA with U26A, C27U, C28A, G30A, A31G
DNA 1: CAATCTGAATTCCGGTCTCCC
DNA 2: TGGTGGCTACGACGGGATT
B29: UUAGGGA (DNA:RNA)
RNA: B1 RNA with G25U, C27A, C28G, A29G
DNA 1: CAATCTGAATTCCGGTCTCCC
DNA 2: TGGTGGCTACGACGGGATT
B30: GUGUAAU (DNA:RNA)
RNA: B1 RNA with C27G, C28U, G30A, A31U
DNA 1: CAATCTGAATTCCGGTCTCCC
DNA 2: TGGTGGCTACGACGGGATT
B31: AUCGCGC (DNA:RNA)
RNA: B1 RNA with G25A, C28G, A29C, A31C
DNA 1: CAATCTGAATTCCGGTCTCCC
DNA 2: TGGTGGCTACGACGGGATT

The target of the assay is T1, RBFOX1 RRM RbFoxmut (Fox-RRM*) (Homo sapiens, UniProt Q9NWB1 109-208, R118D;E147R;N151S;E152T).
T1 sequence: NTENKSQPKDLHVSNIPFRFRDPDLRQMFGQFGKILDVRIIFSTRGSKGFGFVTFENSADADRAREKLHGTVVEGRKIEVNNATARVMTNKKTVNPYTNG
Nature of the assay: EMSA; HiTS-Eq, 1 nM pool, 10 min; buffer printed only for the single-RNA assays: 10 mM Tris pH 7.5, 150 mM NaCl, 3.4 mM EDTA, 0.001% NP-40, 30 C. Particulars: tags: His6 N-terminal (pET28a); label: 5' 32P. In short, it runs like this: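 Purified wild-type or mutant RbFox RRM at increasing concentrations was equilibrated with 1 nM of 5′-radiolabelled RNA carrying 7 randomized nucleotides for 10 min in 50 µL. Unbound RNA was separated by 8% native PAGE and sequenced. Relative association constants came from read-count changes of each RNA species compared with the control reaction, normalised to the cognate motif.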
Background: A gel shift assay detects complexes by their altered migration in electrophoresis.
B1: the binding signal is 0.101 KA relative to UGCAUGU.
As for B2, the binding signal was 0.0882 KA relative to UGCAUGU.
For B3, the binding signal is 0.0754 KA relative to UGCAUGU.
As to B4, the binding signal was 0.0696 KA relative to UGCAUGU.
The figure for B5 is 0.0759 KA relative to UGCAUGU; for B6 it is 0.0887 KA relative to UGCAUGU.
In the case of B7 it was 0.0799 KA relative to UGCAUGU; in that of B8, 0.094 KA relative to UGCAUGU.
The figure for B9 is 0.119 KA relative to UGCAUGU; for B10 it is 0.0866 KA relative to UGCAUGU; for B11 it is 0.0638 KA relative to UGCAUGU.
As for B12, the binding signal was 0.0801 KA relative to UGCAUGU.
The figure for B13 is 0.125 KA relative to UGCAUGU; for B14 it is 0.0692 KA relative to UGCAUGU.
As to B15, the binding signal is 0.0977 KA relative to UGCAUGU.
The figure for B16 is 0.145 KA relative to UGCAUGU; for B17 it is 0.0991 KA relative to UGCAUGU; for B18 it is 0.0834 KA relative to UGCAUGU.
B19: the binding signal was 0.152 KA relative to UGCAUGU.
The figure for B20 is 0.0755 KA relative to UGCAUGU.
In the case of B21 it was 0.049 KA relative to UGCAUGU; in that of B22, 0.0991 KA relative to UGCAUGU; in that of B23, 0.141 KA relative to UGCAUGU.
The figure for B24 is 0.0871 KA relative to UGCAUGU.
Regarding B25, the binding signal is 0.144 KA relative to UGCAUGU.
The figure for B26 is 0.105 KA relative to UGCAUGU; for B27 it is 0.0947 KA relative to UGCAUGU; for B28 it is 0.0614 KA relative to UGCAUGU.
As to B29, the binding signal was 0.0529 KA relative to UGCAUGU.
In the case of B30 it was 0.129 KA relative to UGCAUGU.
In the case of B31, the binding signal is 0.146 KA relative to UGCAUGU.
